Assay [1] addresses T1, HA-VRK1 (human) (UniProt Q99986).
T1 sequence: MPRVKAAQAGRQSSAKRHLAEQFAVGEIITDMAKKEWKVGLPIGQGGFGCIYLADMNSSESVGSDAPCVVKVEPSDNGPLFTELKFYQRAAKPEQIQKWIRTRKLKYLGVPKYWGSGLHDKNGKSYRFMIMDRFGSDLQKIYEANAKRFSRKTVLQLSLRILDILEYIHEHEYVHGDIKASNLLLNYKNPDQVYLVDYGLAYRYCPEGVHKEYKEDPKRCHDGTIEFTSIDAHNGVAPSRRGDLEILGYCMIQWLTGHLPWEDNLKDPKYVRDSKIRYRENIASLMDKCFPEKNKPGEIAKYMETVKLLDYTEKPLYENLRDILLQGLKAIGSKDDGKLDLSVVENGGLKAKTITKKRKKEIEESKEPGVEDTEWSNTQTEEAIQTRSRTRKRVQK
Nature of the assay: co-IP; cells transfected with tagged plasmids (myc-Flag, HA, myc); whole cell extracts 36 h after transfection; lysis buffer 50 mM Tris-HCl pH 7.5, 150 mM NaCl, 1% Nonidet, 1 mM EDTA; beads washed five times.

By UniProt entry, the sequences of proteins in these tests, tags left out. Where a name states a change or a piece, a line headed by the entry shows the natural chain unless it says otherwise.
UniProt P48431: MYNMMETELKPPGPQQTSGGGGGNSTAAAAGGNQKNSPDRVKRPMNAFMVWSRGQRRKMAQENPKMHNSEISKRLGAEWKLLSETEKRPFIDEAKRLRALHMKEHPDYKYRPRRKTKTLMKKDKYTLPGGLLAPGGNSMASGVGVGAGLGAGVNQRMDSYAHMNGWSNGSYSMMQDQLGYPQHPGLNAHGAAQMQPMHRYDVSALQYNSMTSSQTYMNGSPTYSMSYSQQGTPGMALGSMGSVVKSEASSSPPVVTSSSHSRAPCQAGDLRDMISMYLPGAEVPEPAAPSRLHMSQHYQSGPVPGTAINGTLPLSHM
UniProt Q06945: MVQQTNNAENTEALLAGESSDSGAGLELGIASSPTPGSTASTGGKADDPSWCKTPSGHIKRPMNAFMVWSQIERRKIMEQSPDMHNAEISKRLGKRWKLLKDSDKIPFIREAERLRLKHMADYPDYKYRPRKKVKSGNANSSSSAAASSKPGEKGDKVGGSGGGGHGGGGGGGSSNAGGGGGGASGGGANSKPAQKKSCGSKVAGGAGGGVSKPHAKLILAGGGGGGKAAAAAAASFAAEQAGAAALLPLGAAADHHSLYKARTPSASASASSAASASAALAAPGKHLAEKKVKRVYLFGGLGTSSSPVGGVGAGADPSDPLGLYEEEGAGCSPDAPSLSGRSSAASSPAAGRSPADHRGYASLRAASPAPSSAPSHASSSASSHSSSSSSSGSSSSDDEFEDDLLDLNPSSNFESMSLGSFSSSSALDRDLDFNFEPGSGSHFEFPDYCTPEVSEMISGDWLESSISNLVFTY
UniProt P01106: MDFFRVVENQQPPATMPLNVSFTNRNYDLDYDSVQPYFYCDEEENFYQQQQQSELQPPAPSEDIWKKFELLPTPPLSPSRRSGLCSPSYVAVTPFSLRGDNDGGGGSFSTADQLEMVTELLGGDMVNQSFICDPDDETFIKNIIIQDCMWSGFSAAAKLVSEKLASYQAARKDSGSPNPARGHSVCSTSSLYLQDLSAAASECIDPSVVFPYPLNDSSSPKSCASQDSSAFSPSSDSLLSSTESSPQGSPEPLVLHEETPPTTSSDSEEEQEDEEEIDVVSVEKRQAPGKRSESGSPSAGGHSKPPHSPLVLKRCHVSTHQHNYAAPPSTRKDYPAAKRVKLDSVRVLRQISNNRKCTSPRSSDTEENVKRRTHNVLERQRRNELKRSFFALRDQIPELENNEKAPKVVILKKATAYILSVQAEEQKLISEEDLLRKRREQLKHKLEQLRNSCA

Assay [2] deals with T2, GST-VRK1 (pull-down of Sox2) (human) (UniProt Q99986).
T2 sequence: T1 sequence
Nature of the assay: pull-down; GST-VRK1 pull-down of Sox2 (Supplementary Fig. S2c); conditions not given.

For assay [3], the target named is T3, VRK1-myc (human) (UniProt Q99986).
T3 sequence: T1 sequence
Nature of the assay: co-IP; cells transfected with tagged plasmids (myc-Flag, HA, myc); whole cell extracts 36 h after transfection; lysis buffer 50 mM Tris-HCl pH 7.5, 150 mM NaCl, 1% Nonidet, 1 mM EDTA; beads washed five times.

The target in assay [4] is T4, GST-VRK1 (co-transfected with Sox4) (human) (UniProt Q99986).
T4 sequence: T1 sequence
Nature of the assay: pull-down; GST-VRK1 co-transfected with tagged Sox4 wt or mutants; pull-down from the cell lysate.

Assay [5] has as its target T5, human endogenous VRK1 (human (endogenous in MDA-MB-231, NT2, HEK293T)) (UniProt Q99986).
T5 sequence: T1 sequence
Nature of the assay: co-IP; endogenous proteins from cell lysates (MDA-MB-231, NT2, HEK293T); IP with anti-Sox2 mAb (E-4) or anti-VRK1 (1B5), blots with VC1 and Y-17; control IP with a nonspecific antibody; lysis buffer 50 mM Tris-HCl pH 7.5, 150 mM NaCl, 1% Nonidet, 1 mM EDTA.

The target in assay [6] is human endogenous Sox2 (human (endogenous in MDA-MB-231, NT2, HEK293T)) (UniProt P48431). Described as above.

No constants are given. Whether binding was seen depends on the method and setting. In cells and extracts the contact can be indirect. Some binding calls cover weakened binding; strength is not graded here. For some assays here: Tags and fused reporters may be left off the sequences shown.

As to Flag-Sox2 (from UniProt P48431 1-317), the binding result in assay [1] was “binds”.
“Sox2 (in the GST-VRK1 pull-down) (from UniProt P48431 1-317)”: the binding entry in assay [2] is “binds”.
Turning to “Tagged Sox4 wt (from UniProt Q06945 1-474)”, the binding result in assay [3] and in assay [4] was “no binding” each time.
Turning to “Tagged Sox4(A350P) (from UniProt Q06945 1-474)”, the binding entry in assay [3] and in assay [4] was “no binding” each time.
Consider “Tagged Sox4(S395X) (from UniProt Q06945 1-474)”, for which the binding result in assay [3] and in assay [4] was “no binding” in each case.
Take “endogenous c-myc protein (from UniProt P01106 1-454)”: the binding result in assay [5] is listed as “no binding”.
As to “human endogenous Sox2 (from UniProt P48431 1-317)”, the binding entry in assay [5] was “binds”.

B1: human endogenous VRK1 (protein, UniProt Q99986 1-396)
chain: T1 sequence
Consider B1, for which the binding entry in assay [6] is given as “binds”.

The values are drawn from publication PMC4917848.
